Test results published in PubChem BioAssay AID1362 (SRMLSC, 2008).
The list shows a part of the results. Shown are side measurements of this screen, not its main read-out; they come without a call. Compounds called inactive in the main read-out are mostly missing here.

Experiment: growth inhibition of WT strain, primary screen, mitochondrial fusion inhibitor project, WT and mutant strains, chemical genetic (AID 1362); note: tested in S. cerevisiae
Settings: mitochondrial fusion phenotypic screen, at 10 µM
`Brc1ccc2c(c1)C(OC1CN3CCC1CC3)c1ccccc1CS2` (stereo not given) showed an inhibition of 37.2%. In the case of `O=c1[nH]c2ccccc2n1C1CCN(CCCC(c2ccc(F)cc2)c2ccc(F)cc2)CC1`, the inhibition is reported as -11.4%. Work on `COc1ccc2ccc(O)c(CN3CC=C(c4ccccc4)CC3)c2c1` yielded an inhibition of 20.6%. `Cc1cccc(OP(=O)(Nc2ccc(F)cc2)Oc2cccc(C)c2)c1` showed an inhibition of 25.4%. `CCOC(=O)C(O)(c1ccc(NC(=S)NC(=O)c2ccc(Cl)cc2Cl)c(C)c1)C(F)(F)F` (stereo not given) showed an inhibition of 34%. For `CCn1c(O)c(C(c2ccccn2)c2c(O)n(CC)c(=S)[nH]c2=O)c(=O)[nH]c1=S`, the inhibition was 0.28%. Work on `CCOc1cc(CNCCc2c[nH]c3ccccc23)cc(Cl)c1OCC` yielded an inhibition of 85.3%. With `Cc1c(C(c2ccc(Cl)cc2Cl)c2c(O)c3ccccc3oc2=O)c(=O)n(-c2ccccc2)n1C` (stereo not given) the inhibition was 68.5%. `CC(C)C12CN3CCN(CC(C3)C1O)C2` (stereo not given) showed an inhibition of 2.09%. Compound `CSc1ccc(C(=O)C2CCCN(Cc3cc4ccccc4[nH]3)C2)cc1` (stereo not given) has an inhibition of 64.1%. With `N=c1c2c(n(Cc3ccc(Cl)cc3Cl)c3c1CCC3)CCCC2` the inhibition was 63.2%. `N[C@@H](Cc1c[nH]c2ccccc12)c1nnc(SCc2ccc(Cl)cc2)o1` showed an inhibition of 30%. With `COC(=O)C1CN(C#N)N(c2ccc(Cl)cc2)C12c1ccccc1-c1ccccc12` (stereo not given) the inhibition was -6.46%. `COC(=O)c1c(N)n(Cc2ccc(OC)cc2)c2nc3ccccc3nc12` gave an inhibition of -7.78%. `CSc1nnc(C2CCNCC2)n1C` gave an inhibition of 8.04%. Compound `Clc1ccc2c(c1)C(c1ccccc1Cl)=NCc1nnc(N3CCN(CCOc4ccccc4)CC3)n1-2` has an inhibition of -19.1%. In the case of `CC12CCC3C(CC=C4CC(O)CCC43C)C1C/C(=C\c1ccccc1F)C2=O` (stereo not given), the inhibition is reported as 6.63%. `Cc1cccc(OP(=O)(NCc2ccccc2)Oc2cccc(C)c2)c1` gave an inhibition of 28.3%. `c1ccc(-c2[nH]c(-c3ccccc3)[n+](CC3CO3)c2-c2ccccc2)cc1` (stereo not given) showed an inhibition of 7.71%. Compound `CCCCN1C(=O)NC(=O)C2(Cc3c(nc4c(C)cccn4c3=O)N3CCc4ccccc4C32)C1=O` (stereo not given) has an inhibition of 9.28%. Work on `CC1=NN(c2ccccc2)C(=O)/C1=C/c1c(O)[nH]c(=S)[nH]c1=O` yielded an inhibition of 8.33%. In the case of `CCOC(=O)CC1=C(C(=O)OCC)C2(C(=O)N1CC(=O)OC)C(C#N)=C(N)Oc1ccccc12` (stereo not given), the inhibition is reported as 25.6%. In the case of `CN(C)c1ccc(-[n+]2c(-c3ccccc3)cc(-c3ccccc3)cc2-c2ccccc2)cc1`, the inhibition is reported as 62.4%. Work on `CC1CCC(C(C)C)C(OC(=O)COC(=O)c2ccccc2N)C1` (stereo not given) yielded an inhibition of -12%. With `CCc1ccc(NP(=O)(Oc2ccccc2F)Oc2ccccc2F)cc1` the inhibition was 28.7%. In the case of `Cc1ccc(-n2cc(CNC(C)Cc3cnccn3)c(-c3cccc(C)c3)n2)cc1` (stereo not given), the inhibition is reported as 52.9%. With `CCCCCCCCCOc1ccc2[nH]cc(CCN)c2c1` the inhibition was 94%. For `O=C(COC(=O)c1ccc(O)cc1)Nc1ccc(Cl)cc1C(=O)c1ccccc1`, the inhibition was 38.5%. Work on `COc1ccc(NP(=O)(Oc2ccc(Cl)cc2)Oc2ccc(Cl)cc2)cc1OC` yielded an inhibition of -4.56%. Work on `O=c1[nH]sc2cc(F)ccc12` yielded an inhibition of 67.3%. Work on `Cc1oc(-c2ccccc2)nc1CN1C(=O)C(C)N=C(c2ccccc2F)c2cc(Cl)ccc21` (stereo not given) yielded an inhibition of -2.06%. In the case of `O=c1c2ccccc2[se]n1-c1ccccc1`, the inhibition is reported as 95.7%. `O=C(Oc1c(Cl)cc(Cl)c2ccccc12)N1CCCCC1` gave an inhibition of 26.9%. `CCCCCc1nc2c(c(=O)c3ccccc3n2C)c(=O)n1C1CCCCCC1` showed an inhibition of 88.5%. In the case of `O=C(c1ccco1)c1cn(Cc2ccc(Cl)cc2)c2ccccc12`, the inhibition is reported as 23.1%. `CCC(=O)Nc1ccc(N2CCN(CC)CC2)c(Cl)c1` showed an inhibition of -28.9%. In the case of `CNC(C(=O)c1ccccc1)C(OC)c1ccccc1` (stereo not given), the inhibition is reported as 4.21%. Work on `Clc1ccccc1CN1CCN(c2ccccc2Cl)CC1` yielded an inhibition of 62.5%. For `CC(C)(O)[C@H]1O[C@H]2CC[C@@]3(C)[C@@](O)(CC[C@H]4Cc5c([nH]c6ccccc56)[C@@]43C)C2=CC1=O`, the inhibition was 20.8%. `CCC(=Nc1ccc(OC)cc1OC)c1c(O)n(C2CCCCC2)c(=O)[nH]c1=O` showed an inhibition of 12.5%. `N=C(N)c1c(O)n(C2CCCCC2)c(=O)n(C2CCCCC2)c1=O` gave an inhibition of 2.9%. `C/C(=N\N1CCCCC1c1cccnc1)c1c(O)n(C2CCCCC2)c(=S)[nH]c1=O` (stereo not given) gave an inhibition of 22.3%. For `C/C1=C\[C@@H](C)C/C=C/[C@H]2[C@@H]3O[C@]3(C)[C@@H](C)[C@H]3[C@H](Cc4c[nH]c5ccccc45)NC(=O)[C@]32C(=O)/C=C/C(=O)[C@@H]1O`, the inhibition was -20%. Work on `CN1C2CCC1/C(=C/c1ccccn1)C(=O)/C2=C\c1ccccn1` yielded an inhibition of 77%. Compound `CCCCn1c(=O)c(C(=O)Nc2nnc(C(C)C)s2)c(O)c2ccccc21` has an inhibition of 33.1%. In the case of `CN(C)c1ccc(/C=C/c2cc[n+](C)c3ccccc23)cc1`, the inhibition is reported as 75.3%. `COC(=O)C(O)(c1ccc(NC(=S)NC(=O)c2ccc(Cl)cc2Cl)c(C)c1)C(F)(F)F` (stereo not given) showed an inhibition of 45.8%. For `CCCCc1nc2ccccc2c(=O)n1-c1ccc(Cl)cc1[N+](=O)[O-]`, the inhibition was -6.42%. `O=P(Nc1cccc(Cl)c1)(Oc1ccccc1)Oc1ccccc1` showed an inhibition of 37.9%. Compound `CCCCn1c(O)c(/C(CC)=N/N2CCCCC2c2cccnc2)c(=O)[nH]c1=S` (stereo not given) has an inhibition of 17.4%. Compound `CC[n+]1c(SC)ccc2cc(OC)ccc21` has an inhibition of 0%. Compound `O=C1NC(=O)C(CCc2ccncc2)(Cc2cccc(Cl)c2Cl)C(=O)N1c1ccc(Br)cc1` (stereo not given) has an inhibition of -0.32%. With `Cc1cccc(C)c1NC(=O)c1cccn(Cc2ccc3c(c2)OC(F)(F)O3)c1=O` the inhibition was 51.5%. For `CCCCCCCSc1cc(OC)c(CCNC)cc1OC`, the inhibition was 86.7%. In the case of `CCOC(=O)c1c(C)n(Cc2ccccc2)c2ccc(OCC(O)Cn3nc(C)cc3C)cc12` (stereo not given), the inhibition is reported as 13.6%. Compound `CCCCCn1c(=O)c(C(=O)Nc2ccccc2S(N)(=O)=O)c(O)c2ccccc21` has an inhibition of 53.9%. For `CC(C)Oc1cc(-n2c(=S)[nH]c3ccccc3c2=O)c(Cl)cc1Cl`, the inhibition was 50.1%. For `CCOC(=O)C1=C(NC(=S)NC(=O)c2ccccc2)c2ccccc2CC12CCCC2`, the inhibition was 15%. `OCCNc1c2c(nc3ccccc13)CCCC2` showed an inhibition of 13.3%. Work on `CCCC/C(C)=C/[C@@H](NP(=O)(c1ccccc1)c1ccccc1)c1ccccc1` yielded an inhibition of -1.92%. `O=c1[nH]c(=S)n(C2CC2)c(O)c1/C=N/Nc1ccccc1` showed an inhibition of 33.9%. Work on `CCC(=NCc1ccc2c(c1)OCO2)c1c(O)n(C2CCCCC2)c(=O)[nH]c1=O` yielded an inhibition of 34.4%. `CN(CC1COc2ccccc2O1)c1nc(-c2cccnc2)nc2ccccc12` (stereo not given) gave an inhibition of 67.6%. Compound `NS(=O)(=O)c1ccc(N=Cc2c(O)n(C3CCCCC3)c(=O)n(C3CCCCC3)c2=O)cc1` has an inhibition of 81.4%. `CCOC(=O)c1c(-n2c(C)cc(C=C3C(=O)NC(=S)NC3=O)c2C)sc2c1CCCC2` gave an inhibition of 22.9%. Work on `Cc1oc2ccc(OC(=O)N(C)C)cc2c1C(=O)OC(C)C` yielded an inhibition of 69.4%. Work on `CCn1nc(/C=C/c2ccccc2)nc2c(=O)n(C)c(=O)nc1-2` yielded an inhibition of 89.5%. Work on `CCOC(=O)C1SC2(C(F)F)CC1(O)c1c(c(OC)c3occc3c1OC)O2` (stereo not given) yielded an inhibition of 15.7%. In the case of `Cc1oc(-c2ccccc2)nc1CN1C(=O)CN=C(c2ccccc2)c2ccccc21`, the inhibition is reported as 2.07%. With `CCCCCCn1c(N)c(C(=O)NCCN2CCOCC2)c2nc3ccccc3nc21` the inhibition was 2.85%. In the case of `O=C(Nc1ccc(F)cc1)N1CC2CC(C1)c1cccc(=O)n1C2` (stereo not given), the inhibition is reported as -10.4%. `O=c1[nH]c(=S)n(CCC2=CCCCC2)c(O)c1C=NC1CCN(Cc2ccccc2)CC1` gave an inhibition of 31.6%. `C=C(C=O)CC1CC(O)[C@]2(C)OC3CC4OC5C[C@]6(C)O[C@]7(C)CCC8OC9C[C@]%10(C)OC%11C(C)=CC(=O)OC%11CC%10OC9C[C@@H](C)C8OC7CC6O[C@]5(C)CC5OC5C4OC3CC2O1` (stereo not given in full) gave an inhibition of 77.5%. In the case of `Cc1oc(-c2ccccc2Cl)nc1CN1C(=O)CN=C(c2ccccc2)c2ccccc21`, the inhibition is reported as -4.44%. `O=C1C(=O)c2ccccc2-c2ccccc21` gave an inhibition of 93.6%. Compound `O=c1c2ccccc2[nH]c(=S)n1-c1ccc2c(c1)OCO2` has an inhibition of -13.7%. `Cc1c2ccncc2c(C)c2c1[nH]c1ccccc12` gave an inhibition of 45.9%. `Cc1ccc2c(c1)C1CN(C)CCC1N2C(=O)c1cn(-c2ccccc2)nc1-c1ccccc1` (stereo not given) showed an inhibition of 26.2%. `CCCCn1c(=O)c(C(=O)Nc2ccccc2S(N)(=O)=O)c(O)c2ccccc21` gave an inhibition of 58.4%. Compound `CCC(C)(C)n1nnnc1C(c1cccs1)N1CC=C(c2ccc(F)cc2)CC1` (stereo not given) has an inhibition of 57.1%. `Clc1ccc2c(c1)C(c1ccccc1Cl)=NCc1nnc(N3CCN(CCSc4ccccc4)CC3)n1-2` gave an inhibition of 1.05%. Work on `CCOC(=O)c1c(NC(NC(=O)CF)C(Cl)(Cl)Cl)sc2c1CCCC2` (stereo not given) yielded an inhibition of 30.9%. `CC/C(=C\C=C\[C@@H]1C=C[C@@H]2CCC[C@H]2[C@@H]1C(=O)c1ccc[nH]1)[C@@H]1O[C@@H]([C@@H](C)C(=O)O)CC[C@@H]1C` showed an inhibition of 75.8%. `CCCCC/C=C\C/C=C\C/C=C\C/C=C\CCCC(=O)Nc1ccc(O)cc1` gave an inhibition of 12.4%. `COc1cccc(NP(=O)(Oc2ccc(Cl)cc2)Oc2ccc(Cl)cc2)c1` showed an inhibition of 23.5%.
